# Measured values from PubChem BioAssay AID1460 (National Center for Advancing Translational Sciences (NCATS), 2008).
# Screen size: about 270,000 compounds; about 5,800 (2.1%) were called active. This list was built around the results that the source calls inconclusive (neither active nor inactive); the mix of calls is not that of the screen. Calls come from the whole dose curve; as a rule, active = well fitted inhibition curve with a large enough effect; inconclusive = small, poorly fitted or top-dose-only effect; inactive = flat fitted curve, though single readings scatter. A potency beside an inconclusive call is a rough fit, not a confirmed value.
# Biological target: Microtubule-associated protein tau (Homo sapiens) (UniProt P10636)
# UniProt P10636, sequence (P10636 whole entry, looked up): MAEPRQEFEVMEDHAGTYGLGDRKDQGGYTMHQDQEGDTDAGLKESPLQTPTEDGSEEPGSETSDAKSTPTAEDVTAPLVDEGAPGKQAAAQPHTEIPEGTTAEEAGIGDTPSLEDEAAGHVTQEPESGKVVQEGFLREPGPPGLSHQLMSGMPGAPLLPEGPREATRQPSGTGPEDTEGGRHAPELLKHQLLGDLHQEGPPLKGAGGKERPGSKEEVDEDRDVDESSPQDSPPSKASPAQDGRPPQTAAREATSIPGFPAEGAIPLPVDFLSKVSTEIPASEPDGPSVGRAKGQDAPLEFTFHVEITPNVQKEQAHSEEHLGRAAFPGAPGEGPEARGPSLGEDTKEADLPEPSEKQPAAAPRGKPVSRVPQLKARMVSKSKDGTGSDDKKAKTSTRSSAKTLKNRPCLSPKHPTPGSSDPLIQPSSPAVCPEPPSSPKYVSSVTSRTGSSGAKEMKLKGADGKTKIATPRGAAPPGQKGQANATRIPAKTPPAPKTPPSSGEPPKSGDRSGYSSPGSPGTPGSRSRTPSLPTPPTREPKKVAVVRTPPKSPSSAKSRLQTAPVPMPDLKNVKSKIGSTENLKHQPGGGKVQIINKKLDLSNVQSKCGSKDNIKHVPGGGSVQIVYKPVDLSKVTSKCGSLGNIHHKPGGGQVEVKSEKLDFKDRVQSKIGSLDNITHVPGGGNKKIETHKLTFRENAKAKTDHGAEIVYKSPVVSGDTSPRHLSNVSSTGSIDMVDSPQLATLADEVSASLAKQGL
# Experiment: qHTS for Inhibitors of Tau Fibril Formation, Thioflavin T Binding; note: nearly all actives have a fitted effect of over 55% in size
# Conditions: recombinant tau K18 P301L, heparin-induced fibrillization, ThT fluorescence; series mostly up to 57.4 µM
# Procedure, shortened: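 ThT emission at 510 nm, taken 1 hr after adding 30 uM dye, quantifies aggregates formed when 20 uM heparin acts on human tau K18 P301L for 6 hr at 37 C.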
# Potency is the fitted concentration of half-maximal effect; tags give direction and shape of the fitted curve.
row,SMILES,Potency
1,COc1ccc(CCNC(=O)c2cnn(-c3ccc(F)cc3)c2C2CCN(C(=O)OC(C)(C)C)CC2)c(OC)c1,"inconclusive: 17.8 µM [inhibitor, single point]"
2,Cc1c(NC(=O)CSc2nnc3c4ccccc4n(CCc4ccccc4)c3n2)c(=O)n(-c2ccccc2)n1C,inactive
3,CCc1ccc(OCC(=O)N(Cc2ccc(C)o2)C2CCS(=O)(=O)C2)cc1 (stereo unspecified),inactive
4,CCOc1ccc(C2=NNC(c3cccs3)=Nc3ccc(OC)cc32)cc1,"inconclusive: 8.91 µM [inhibitor, partial curve]"
5,CCOC(=O)c1c(-c2ccc(OC)cc2)csc1NC(=O)CCN1C(=O)c2ccccc2C1=O,"inconclusive: 12.6 µM [inhibitor, partial curve]"
6,CC(C)OC(=O)c1c(NC(=O)c2ccco2)sc2c1CCCCC2,"inconclusive: 31.6 µM [inhibitor, partial curve]"
7,O=C(NCc1ccco1)C1CCCN(S(=O)(=O)c2ccc(-n3cnnn3)cc2)C1 (stereo unspecified),"inconclusive: 8.91 µM [inhibitor, partial curve]"
8,COc1cccc(/C=N/N2CCN(c3ccccc3OC)CC2)c1,"inconclusive: 11.2 µM [inhibitor, partial curve]"
9,CCOC(=O)N1CCc2c(sc3c2c(=O)n(Cc2ccccc2)c(=O)n3Cc2ccccc2Cl)C1,inactive
10,O=C(O)Cc1nn(Cc2ccc(Cl)cc2)c(=O)c2ccccc12,inactive
11,COC(=O)c1sccc1NC(=O)COc1ccccc1Cl,inactive
12,O=C(CSc1ncn[nH]1)c1cccc([N+](=O)[O-])c1,"inconclusive: 25.1 µM [inhibitor, partial curve]"
13,CCOC(=O)c1cc(C)[nH]c(=S)c1C#N,"inconclusive: 5.01 µM [inhibitor, partial curve]"
14,CC(=O)c1ccc(N2CCN(c3ncnc4c3nc3n4CCCC3)CC2)cc1,"inconclusive: 10 µM [inhibitor, partial curve]"
15,CC(C)(C)c1ccc(CNc2cc(N3CCOCC3)ccc2[N+](=O)[O-])cc1,active: 7.08 µM
16,O=C(O)CN1C(=O)/C(=C\c2cn(CC(=O)N3CCOCC3)c3ccccc23)SC1=S,"inconclusive: 22.4 µM [inhibitor, partial curve]"
17,COc1ccc(C2C(C#N)=C(N)N(Nc3ccccc3)C3=C2C(=O)CC(C)(C)C3)cc1C (stereo unspecified),"inconclusive: 31.6 µM [inhibitor, single point]"
18,COc1ccc(C(=O)CSc2nnc(-c3cc(C)on3)o2)cc1,"inconclusive: 4.47 µM [inhibitor, full curve]"
19,COc1ccc(C(=O)N2CCn3c(C)ccc3C2C)cc1 (stereo unspecified),"inconclusive: 25.1 µM [inhibitor, partial curve]"
20,CCOC(=O)CN(C(=O)CSc1nnc(COc2ccc(OC)cc2)n1CC)c1ccccc1,"inconclusive: 10 µM [inhibitor, partial curve]"
21,COc1ccc(C2CC(c3ccc(OC)c(OC)c3)=NN2S(C)(=O)=O)cc1 (stereo unspecified),inactive
22,FC(F)(F)COc1cc(-c2nnc(SCc3ccccc3)n2Cc2ccco2)cc(OCC(F)(F)F)n1,"inconclusive: 0.891 µM [inhibitor, single point]"

row,SMILES,Potency
1,O=C(Nc1ccc(N2CCN(Cc3ccccc3)CC2)cc1)c1ncn[nH]1,"inconclusive: 14.1 µM [inhibitor, partial curve]"
2,O=c1cc(-c2ccccc2O)oc2cc(O)cc(O)c12,"inconclusive: 17.8 µM [inhibitor, partial curve]"
3,O=c1c2cccnc2n(-c2ccccc2)n1Cc1c(Cl)cccc1Cl,"inconclusive: 12.6 µM [inhibitor, partial curve, poor fit]"
4,CNC(=O)[C@H](C)/C=C(\c1cccnc1)C(NC(=O)OCc1ccccc1)c1ccc(C(=O)OC)cc1 (stereo partly specified),inactive
5,COc1ccc(-c2cc(C(=O)Oc3ccc([N+](=O)[O-])cc3)c3ccccc3n2)cc1,"inconclusive: 31.6 µM [inhibitor, partial curve]"
6,O=[N+]([O-])c1ccc(S(=O)(=O)N2CCSC2c2ccco2)cc1 (stereo unspecified),"inconclusive: 15.8 µM [inhibitor, single point]"
7,COC1=C(c2ccccc2)C(=O)c2ccccc2C1=O,"inconclusive: 25.1 µM [inhibitor, partial curve]"
8,CN(C)CCP(=O)(c1ccccc1)c1ccccc1,"inconclusive: 7.94 µM [activator, single point]"
9,Cc1coc2c(C)c3oc(=O)c(CC(=O)NCCc4ccc(Cl)cc4)c(C)c3cc12,inactive
10,COc1ccc(CCN2C(=O)c3[nH]nc(-c4ccccc4O)c3C2c2cccc(Cl)c2)cc1 (stereo unspecified),"inconclusive: 39.8 µM [inhibitor, single point]"
11,O=C(CCCN1C(=O)/C(=C/c2ccccc2)SC1=S)Nc1cccc(O)c1,"inconclusive: 10 µM [inhibitor, partial curve]"
12,CCOc1ccc(CCNC(=O)C2CCN(C(=O)c3cc4sccc4n3CC)CC2)cc1OCC,"inconclusive: 22.4 µM [inhibitor, partial curve]"
13,COc1cc(/C=C/c2nc3ccc([N+](=O)[O-])cc3s2)ccc1OCC(=O)O,"inconclusive: 0.794 µM [inhibitor, full curve]"
14,COc1ccc(C(=O)/C=C\N2CCOCC2)cc1,"inconclusive: 39.8 µM [inhibitor, single point]"
15,CNc1ccnc(-c2ccccc2CN(C)C)n1,"inconclusive: 0.891 µM [inhibitor, single point]"
16,Cc1ccc(NC(=O)CN2CCc3ccccc3C2)cc1S(=O)(=O)N(C)C,inactive
17,COC(=O)[C@@]1(Cc2ccc(OC)cc2)[C@H]2c3cc(C(=O)N4CCCC4)n(CCc4ccc(O)c(OC)c4)c3C[C@H]2CN1C(=O)c1ccccc1,"inconclusive: 39.8 µM [inhibitor, single point]"
18,CCCCn1c(CNC(=O)C23CC4CC(CC(C4)C2)C3)nnc1SCC(=O)Nc1nnc(C)s1,"inconclusive: 28.2 µM [inhibitor, single point]"
19,O=[N+]([O-])c1ccc(N2CCN(CCO)CC2)cc1Sc1nc2ccccc2[nH]1,"inconclusive: 35.5 µM [inhibitor, partial curve]"
20,CC(C)Sc1nc2sc(-c3ccccc3)cc2c(=O)n1N,inactive
21,COCCNC(=O)c1ccc(Cn2c(=S)[nH]c3cc4c(cc3c2=O)OCO4)cc1,inactive
22,Nc1cc(C(=O)N/N=C/c2cccc([N+](=O)[O-])c2)n[nH]c1=O,"inconclusive: 22.4 µM [inhibitor, partial curve]"

row,SMILES,Potency
1,CSc1nc(N)c(C(=O)Nc2ccc([N+](=O)[O-])cc2)s1,"inconclusive: 1.12 µM [inhibitor, partial curve]"
2,CCCn1c(=O)c2sccc2n2c(CCCC(=O)Nc3ccc(Oc4ccc(Cl)cc4)cc3)nnc12,"inconclusive: 3.55 µM [inhibitor, single point]"
3,Cc1ccc(OCCN2C(=O)c3ccccc3C2=O)c(C)c1,inactive
4,COc1cccc(-c2nnc(SCC(=O)NC3CCCCC3)o2)c1,"inconclusive: 44.7 µM [inhibitor, single point]"
5,CCCc1cnc(NCCNCC(O)COc2ccc(Cl)c(Cl)c2)nc1 (stereo unspecified),inactive
6,C/C(=N/NC(=O)c1ccc(O)cc1)c1cccc([N+](=O)[O-])c1,"inconclusive: 39.8 µM [inhibitor, single point]"
7,NC(=S)N/N=C\c1c2ccccc2cc2ccccc12,"inconclusive: 35.5 µM [inhibitor, single point]"
8,CO[C@]12CC(COC(=O)c3cncc(Br)c3)CN(C)[C@@H]1Cc1cn(C)c3cccc2c13 (stereo partly specified),inactive
9,CCCCOc1ccc(S(=O)(=O)Nc2ccc(-c3ccc(N4CCC(C)CC4)nn3)cc2)cc1,"inconclusive: 3.55 µM [inhibitor, full curve]"
10,O=C(Oc1ccccc1[N+](=O)[O-])c1cccnc1,"inconclusive: 15.8 µM [inhibitor, partial curve]"
11,Cn1c(CCN2CCN(c3ccc(F)cc3)CC2)nc2cc(NC(=O)c3ccco3)ccc21,"inconclusive: 15.8 µM [inhibitor, partial curve]"
12,COc1ccc(-c2c3c(=O)n(C)c(=O)n(C)c3cn2Cc2cccnc2)cc1,"inconclusive: 39.8 µM [inhibitor, single point]"
13,Cc1nn(-c2ccccn2)c2c1C(c1ccccc1Cl)C1=C(N2)c2ccccc2C1=O (stereo unspecified),"inconclusive: 12.6 µM [inhibitor, partial curve]"
14,O=C1c2cccnc2C(Nc2cccc(F)c2)N1Cc1ccco1 (stereo unspecified),inactive
15,c1ccc(C2=Nn3c(Cn4nnc5ccccc54)nnc3SC2)cc1,inactive
16,Cc1c(NC(=O)c2cc(-c3ccc(Cl)cc3)on2)c(=O)n(-c2ccccc2)n1C,inactive
17,CCOc1ccc(NC(=O)N2CCN(Cc3cc(=O)n4nc(-c5ccc(OC)cc5)sc4n3)CC2)cc1,"inconclusive: 1.41 µM [inhibitor, full curve, poor fit]"
18,COC(=O)C1=C(C(=O)OC)[C@@H]2Nc3ccccc3[C@@]23C[C@@H](C(=O)OC)N(C(=O)CC(C)C)C3=N1,"inconclusive: 7.08 µM [inhibitor, single point]"
19,C=CCc1cccc(C=Nc2ccc(Br)cc2)c1O,inactive
20,O=C(O)c1cccnc1SCC(=O)N1CCCc2ccccc21,"inconclusive: 35.5 µM [inhibitor, single point]"
21,CCOC(=O)c1noc2nc(C)n(Cc3cccc(C#N)c3)c(=O)c12,inactive
22,COc1ccc(CCNC(=O)c2ccc3c(c2)nc2n3CCC(C)C2)cc1OC (stereo unspecified),"inconclusive: 0.562 µM [inhibitor, full curve]"
